# Experimental data as given in the supplement of paper PMC3334620.
# Whole data set: some 33,000 sequences, median “E-score (-0.5 to 0.5)” near -0.017, cut for the highest 2% near 0.3. The list shows a part of the results.
# Target: T1, Sut1 (UniProt P53032)
# T1 sequence: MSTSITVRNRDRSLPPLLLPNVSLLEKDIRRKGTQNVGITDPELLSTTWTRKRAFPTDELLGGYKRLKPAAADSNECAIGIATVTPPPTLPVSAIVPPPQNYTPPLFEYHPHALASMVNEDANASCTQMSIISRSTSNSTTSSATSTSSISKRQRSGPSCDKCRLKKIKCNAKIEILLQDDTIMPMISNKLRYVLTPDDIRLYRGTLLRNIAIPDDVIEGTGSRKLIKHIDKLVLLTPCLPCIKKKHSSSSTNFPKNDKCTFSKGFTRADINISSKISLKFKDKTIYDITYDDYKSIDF
# Test: PBM E-score (8-mer binding enrichment) (E-score (-0.5 to 0.5)); higher = stronger / more preferred TF binding; most listed sequences are background and not binding sites
# Settings: protein concentration: 200 nM; construct: GST-full length
# In short: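 GST-tagged yeast TFs (full-length or DNA-binding domain) were made by PURExpress in vitro transcription/translation and applied at about 100-200 nM to universal all-10-mer Agilent arrays. The arrays were made double-stranded by primer extension, on fresh or once-stripped slides. Bound protein was detected with fluorescent anti-GST, and scans were normalised with masliner. Each ungapped eight-base word, pooled with its reverse complement, received an E-score (modified Wilcoxon-Mann-Whitney statistic) from the Universal PBM Analysis Suite.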
row,Sequence,PBM E-score
1,ACCTGTTC,-0.081
2,CACAGTGA,-0.0779
3,AACGGTTC,-0.0755
4,CATGTGGG,-0.0538
5,GTCAGTTA,0.143
6,ACACCATC,-0.185
7,AGCACAAT,-0.11
8,GTAATAAA,0.284
9,CCGGCAAA,0.18
10,ACCTAGTG,0.101
11,CAACTTCC,0.146
12,CACAGCTC,-0.0355
13,AGAGACTA,0.0354
14,GGCACGAC,-0.0913
15,AAGATTGG,0.101
16,AAATTCTG,0.189
17,AATGGGTC,-0.133
18,CACAGATC,0.0252
19,CGTCGTAA,-0.0262
20,CCGATCCC,-0.166
21,AAATGCAG,-0.0343
22,AGTTTGCA,0.00589
23,GCGCCATA,-0.171
24,TCTTGCCA,-0.21
25,TCAGGGAA,-0.132

row,Sequence,PBM E-score
1,CCCCATAA,-0.104
2,CCTATTAG,-0.0106
3,CGCTGGCA,-0.191
4,AGGGATTC,-0.121
5,CAGCATCG,-0.272
6,CCATATGC,-0.0825
7,GCAGGACC,-0.147
8,GCCGGAGC,0.284
9,CCCATTCG,-0.0443
10,GTTTCCGA,0.332
11,CCACTATA,-0.00853
12,AATATGCG,-0.00378
13,AAGCCCTG,-0.241
14,AATTTTGC,0.0464
15,GAAATGAC,0.0699
16,AGAATGCC,0.0192
17,TGGTCGAA,-0.258
18,AGTGAACA,0.0388
19,TAGAAATA,0.12
20,CGCTTTAG,-0.0904
21,GTTGTTGA,0.0996
22,GATTTGTA,0.109
23,ACCTGTCC,-0.0505
24,CTGGCCAC,-0.213
25,GATCTATA,0.133

row,Sequence,PBM E-score
1,AGTTAGCC,0.177
2,CAAACCCG,-0.17
3,ACGGATAG,0.0603
4,GGAACTGA,-0.129
5,CGCTTCTC,-0.05
6,GACTAATA,0.196
7,CCAGAGCC,-0.166
8,ATGTAAGG,-0.015
9,CAGCGTCG,-0.0369
10,ACGGCCGA,-0.0794
11,TTAAGGAA,0.207
12,CTAGATCA,-0.139
13,ACCGTGAG,-0.193
14,AGGAAAGG,-0.294
15,ACACGAAG,0.0687
16,CTTGCTGC,-0.149
17,CGTTCAAC,0.0558
18,GATGCAAC,-0.103
19,AGCTCATC,-0.086
20,AACTCGAA,-0.0516
21,GACGGGCA,-0.28
22,CGCAGTAC,-0.164
23,CCTAACAG,-0.0185
24,TCGCCTAA,-0.0306
25,GCTTATTA,0.0467

row,Sequence,PBM E-score
1,CATGGCTA,0.0513
2,ACGTTATG,0.0828
3,GGACAGAA,-0.00255
4,AAACTAGT,0.0427
5,GATTCCGA,0.337
6,CGCTCTTC,-0.207
7,AAAGATTA,0.306
8,ATGAGCGC,-0.0253
9,AGCCGCGA,-0.0685
10,ATACGAGG,-0.165
11,CGTCGCGC,-0.132
12,GGACGATA,-0.00971
13,CATCCCGC,-0.212
14,ACTCGCCG,0.152
15,GTACACCA,-0.104
16,CAGACTCA,-0.122
17,GACCCGCC,-0.153
18,GCCAATAC,0.0412
19,AATCAGGA,-0.136
20,AGCTGCCC,-0.124
21,AGCGTAGA,0.0222
22,ATAAGTGA,0.116
23,ACAACGGA,0.335
24,ATCACATG,-0.0223
25,CCCCTCGG,-0.191

row,Sequence,PBM E-score
1,AGATGGCT,-0.0121
2,AAGCTCAC,-0.0863
3,ATTCATTG,0.108
4,GCTTGCGA,-0.0868
5,ACCACGAC,-0.12
6,CTGATCCC,-0.15
7,CTACATAG,0.00166
8,ACGGGACC,-0.112
9,CTCGAGGA,-0.159
10,ACATGGTG,-0.0356
11,AAGAGCAT,-0.0261
12,AGTATCAG,-0.0501
13,ATGGCAAG,-0.2
14,CCCGAACG,0.0466
15,CAAAATGG,0.215
16,AGCGCTTC,0.135
17,ACCCGGGT,-0.0446
18,CACTTGGG,-0.0572
19,TAACGGAA,0.309
20,CGTTACGC,-0.0584
21,TGCCACAA,-0.0221
22,CAACATTC,-0.185
23,CCCCCTTC,-0.401
24,CTAAAAGC,0.0247
25,AAATGTTC,0.139

row,Sequence,PBM E-score
1,AACCCATG,-0.0261
2,ATTCCGCA,-0.00724
3,CTTTGAGA,0.168
4,CAGCAACC,-0.116
5,TACTATAA,0.306
6,CGAGAGCG,-0.16
7,CAGGCGCG,-0.252
8,CCGCTCCG,0.262
9,ACTCGGAG,0.399
10,GTTTACGA,-0.075
11,ACCCATAT,-0.104
12,AACGATGA,0.0705
13,ACCTGATC,-0.177
14,AACGCTTG,-0.135
15,TATCAAGA,0.2
16,ACAGAACC,0.0597
17,TGTATAAA,0.157
18,AAACCCTC,-0.27
19,CTGACTCC,0.215
20,GCACGGTA,-0.169
21,ACGAGAAC,-0.00525
22,CTCTTAAC,0.042
23,ACATTTAA,0.293
24,ACGATATG,0.0604
25,GCCCGCAC,-0.0922

row,Sequence,PBM E-score
1,ATGTACGC,-0.107
2,GCAATCAC,0.00086
3,AATGAGGC,-0.21
4,ATTCCCAC,-0.152
5,AAAGGCGG,0.0481
6,TAGGCAAA,-0.0422
7,GCACTTCC,-0.146
8,CTGATTGA,-0.133
9,AAACCACT,-0.0395
10,GCCCGGAC,0.328
11,AATAGCGA,0.105
12,CCTCCGAA,0.121
13,GAACAGGC,-0.129
14,AATACCTG,-0.0173
15,ACTCGCTA,0.0713
16,AATAGGTC,-0.00254
17,ACCGATTA,0.244
18,ATAAGCGA,0.158
19,ACGCACAC,0.133
20,AGTGTGAT,-0.0982
21,CGTCACAG,-0.211
22,CGGGGAGC,-0.0746
